In ChEMBL document CHEMBL4888484, “Replenishing the malaria drug discovery pipeline: Screening and hit evaluation of the MMV Hit Generation Library 1 (HGL1) against asexual blood stage Plasmodium falciparum ,using a nano luciferase reporter read-out” (2022):
Hit rate of the full screen: of about 150,000 compounds, about 540 (0.36%) showed an effect of 50% or more. The list shows a part of the results.

tested on: Plasmodium falciparum; test: Primary screen in NF54 nanoGlo assay, in single point, at 2uM, 72h; a lower Z score goes with more inhibition; type: functional, Erythrocyte; settings: timepoint 72 hour

Row | SMILES | % Inhibition [%] | Z score
1 | C=CCC(NCC(C)CCc1ccccc1)C(=O)O (configuration not stated) | -7 | 1.02
2 | Cc1cc(C)n(-c2nnc(-c3ccccc3)c(-c3ccccc3)n2)n1 | 38 | -0.97
3 | Cc1cc(NC(=O)c2oc(CC3CC3)nc2C)ccc1F | -3 | 0.28
4 | CS(=O)(=O)N1C[C@H]2CN(Cc3ccccc3Cl)CC[C@@]2(CO)C1 | -5 | 0.56
5 | CCc1cccnc1C(=O)NCCOC1CCCCCC1 | 6 | -0.77
6 | Cc1c(S(=O)(=O)NCc2ccn(C3CCCC3)n2)c2ccccc2n1C | -5 | 0.93
7 | C[C@]1(Cc2ccc3c(c2)OCO3)CCCN(C(=O)Cn2ccnc2)C1 | -8 | 0.87
8 | CCCc1nnsc1C(=O)NCc1cc(C(C)(C)C)n[nH]1 | -14 | 1.49
9 | Cc1ccc(NC(=O)c2cnc(-c3cnn(C)c3)s2)c(C)n1 | 31 | -3.99
10 | COc1ccccc1C1CC1C(=O)NC1CCCCC1C(F)(F)F (configuration not stated) | 5 | -0.89
11 | Cc1cc(C(=O)Nc2sc3c(c2C#N)CCCC3)cs1 | -10 | 0.95
12 | COc1ccccc1OCCN1CCC[C@H](c2nnc3n2CCC3)C1 | -7 | 0.99
13 | COc1ccccc1-c1nc(S(=O)(=O)c2ccc3c(c2)OCCO3)c(NCc2cccnc2)o1 | -11 | 1.49
14 | O=C(Nc1nc(C(=O)NCCc2ccccn2)cs1)c1ccc(Cl)c(Cl)c1 | -19 | 1.78
15 | N#Cc1ccc(-c2nc(-c3ccc4c(c3)ncn4CCN3CCOCC3)no2)cc1 | 2 | -0.37
16 | O=C(Nc1cnccc1-c1ccccc1)c1ccccc1F | 3 | -0.49
17 | CN(C(=O)c1n[nH]c2c1CCCC2)[C@H]1CS(=O)(=O)C[C@@H]1O | -4 | 0.74
18 | CN(C)c1ncccc1N(C)S(=O)(=O)c1cnn(C)c1 | -4 | 0.45
19 | O=C(Nc1ccc(Cl)cc1F)c1csc(-c2ccc(N3CCCC3)nc2)n1 | -9 | 1.51
20 | C[C@@H](Cc1ccc(Cl)cc1Cl)C(=O)NCC#N | -7 | 1.19
21 | CCCC(=O)N1CCC(N2C(=O)CC[C@H]2C(=O)NCc2ccccc2)CC1 | -8 | 1.38
22 | Cc1nc2ccc(NCc3cnc(-c4ccccn4)s3)cc2o1 | -7 | 0.98

Row | SMILES | % Inhibition [%] | Z score
23 | COc1ccc(OCc2nc(C(=O)N3CCN4CCNC(=O)[C@@H]4C3)co2)cc1 | -7 | 1.2
24 | C[C@H]1CNCCN1C(=O)CCn1nnc2ccccc2c1=O | -11 | 1.43
25 | O=C(Nc1c(-c2ccc(C(F)(F)F)cc2)n[nH]c1C1CC1)c1cccc(Cl)c1 | -6 | 0.76
26 | Cc1ccc2nc(NC(=O)CC3CCCCC3)sc2c1 | -6 | 1.21
27 | CC(C)(CC(=O)NCc1cccc(CO)n1)Cc1ccc(Cl)cc1 | 8 | -1.49
28 | Cc1noc(C)c1CS(=O)(=O)Cc1cn2ccccc2n1 | -7 | 1.24
29 | c1cncc(-c2noc(-c3cccnc3)n2)c1 | -2 | 0.25
30 | Cc1nnc(CC(=O)N2CCO[C@H](C(C)C)C2)o1 | -5 | 0.99
31 | COCC(=O)N(Cc1cccc(OS(C)(=O)=O)c1)CC1CC1 | -13 | 1.29
32 | c1ccc(COc2ccc(-c3cnc4nncn4c3)cc2)cc1 | -10 | 1.31
33 | O=C(O)Cn1nc(-c2ccco2)nc1CCN1CCCCCCC1 | -11 | 1.92
34 | CCC(CO)NC(C)c1ccccc1OC (configuration not stated) | -12 | 1.44
35 | CCN=C(NCC#Cc1ccccc1)NCCN1CCC(OC)CC1 | -3 | 0.31
36 | NC(=O)c1ccc(CC2CCN(C(=O)c3cccs3)CC2)cc1 | 4 | -0.46
37 | CCN(C(=O)N[C@@H](C)c1noc(C)n1)C(C)C | -7 | 0.93
38 | CCc1nc2c(c(O[C@H]3CCCN(Cc4ccccc4Cl)C3)n1)CCOCC2 | -12 | 1.87
39 | CN(C)C(=O)[C@H]1CC(=O)N(C2CCCCCC2)C1 | 6 | -1.12
40 | C[C@H](NC(=O)Nc1cccc(F)c1F)C(=O)OC1CCCC1 | -13 | 2.49
41 | CC1CN(CCC(=O)NC2CC2)C(C)CO1 (configuration not stated) | -42 | 4.94
42 | CCCc1cc(N[C@@H](C)C(=O)N(C)C)nc(C)n1 | 2 | -0.39
43 | COc1ccc2c(N3CCN(C(=O)CCc4ccc(-c5ccc(C)cc5)o4)CC3)nsc2c1 | 32 | -3.62
44 | Cc1cnc(CN2CC3(CCC2=O)CCN(C(=O)c2ccc(N)nc2)CC3)cn1 | -8 | 0.98

Row | SMILES | % Inhibition [%] | Z score
45 | COCc1cc(N2CCC(c3[nH]ncc3Cc3ccccc3)CC2)ncn1 | -13 | 1.29
46 | CCCN1C[C@@H]2CC[C@H]1CN(S(=O)(=O)c1ccc(C)c(F)c1)C2 | -11 | 1.41
47 | Cc1nccn1CCn1ncn2cccc2c1=O | -8 | 1.08
48 | CCOC(=O)COc1c(C)cc(N)cc1C | -8 | 1.06
49 | Cc1ccccc1Cc1sc(NC(=O)CCc2nnc[nH]2)nc1C | -10 | 1.13
50 | CC(C)(C)OC(=O)N1CC(O)C(C#N)C1 (configuration not stated) | 15 | -1.8
51 | CCn1c(CN2CCc3[nH]nc(CC4CCCC4)c3C2)nc2ccccc21 | 7 | -0.63
52 | CC1CC(C)CN(CCCN2C(=O)c3nc4ccccc4n3CC2(C)C(=O)NC2CCCCCC2)C1 (configuration not stated) | -9 | 0.84
53 | CCCNC(=O)Cn1c(-c2ccco2)nn(-c2ccc(Cl)cc2)c1=O | -10 | 1.47
54 | O=S(=O)(c1cccnc1)N1C2CCC1CC(Oc1cccnc1)C2 (configuration not stated) | -14 | 1.62
55 | CCc1cnc(CCNC(=O)N(C)Cc2cc3ccccc3o2)s1 | -9 | 0.93
56 | O=C(NCc1ccncc1)N1CCC([C@H](O)C(F)(F)F)CC1 | -6 | 0.72
57 | CC(C)c1cc(NCCCc2ncc[nH]2)ncn1 | -3 | 0.54
58 | Cc1nnc(N2CCN(c3ncccn3)CC2)c(C#N)c1C | -19 | 2.11
59 | CC(C)Oc1cc(Br)cc(NC(=O)[C@H]2C[C@H](O)CN2)c1 | -12 | 1.37
60 | Cc1ccc(C)c(CNC[C@]2(O)CCCN3CCCC[C@@H]32)c1 | 26 | -3.34
61 | C=CC[C@]1(CO)CCCN(C(=O)c2csc(NC)n2)C1 | 3 | -0.48
62 | O=C(Nc1ccccc1O)C1CCN(c2nc(N3CCCC3)nc(N3CCCC3)n2)CC1 | -6 | 1.08
63 | COCCN(CC(N)=O)S(=O)(=O)c1ccc(C)cc1C | -7 | 1.3
64 | CN(CC1CCCCC1O)C(=O)NC1CCc2ccccc21 (configuration not stated) | 7 | -0.84
65 | NC(=O)CC1CCN(S(=O)(=O)c2cccc3ccncc23)CC1 | 1 | -0.19
66 | Cc1cc(CNC(=O)Nc2ccnc(C(=O)OC(C)(C)C)c2)on1 | -11 | 1.64

Row | SMILES | % Inhibition [%] | Z score
67 | O=C(Nc1ccccc1)N(CCOCCOCCN(Cc1ccccc1)C(=O)Nc1ccccc1)Cc1ccccc1 | -1 | 0.19
68 | COC(=O)c1ccc(CN2CCC(N3C[C@@H](C)O[C@@H](C)C3)CCC2=O)cc1 (some centres not stated) | -11 | 1.26
69 | COc1nccc(-c2ccc(S(=O)(=O)N3CCCCC3)cc2)c1C#N | -12 | 2.23
70 | CCCOC1(CNC(=O)c2cn[nH]c2C)CCCCC1 | -1 | 0.2
71 | CC(C)c1cc(NC(=O)NCCCN2CCNC(=O)C2)n(C)n1 | 1 | -0.11
72 | C[C@]1(c2nc(C3CCCCCC3)no2)CCNC1 | -1 | 0.15
73 | Cc1cc(C)cc(OCC(=O)NCc2ccc(-c3nn4c(C)nnc4s3)cc2)c1 | -8 | 1.16
74 | Cc1cnccc1C(=O)NC[C@H]1CCN(Cc2nc3ccccc3[nH]2)C1 | -4 | 0.66
75 | O=C(C[C@H](c1ccc(Cl)c(Cl)c1)c1c[nH]c2ccccc12)NC1CCN(Cc2ccccc2)CC1 | 1 | -0.19
76 | CCc1cc(N[C@H]2CC(C)(C)Cc3nc(N4CCC(O)CC4)ncc32)nc(C)n1 | -10 | 1.9
77 | Cc1ccc(N(C)Cc2csc(C(C)C)n2)nn1 | 1 | -0.1
78 | Cc1cnc(C(=O)N2CCOc3ccc(C(=O)NCc4ccccc4)cc3C2)cn1 | -10 | 1.82
79 | CCCN(CC(=O)NCCc1ccc(S(N)(=O)=O)cc1)CC(=O)N(C)C | 2 | -0.27
80 | O=S(=O)(Nc1ccccc1)c1ccc(-c2cnc(C3CC3)o2)cc1 | -5 | 0.92
81 | Cc1ccc(C)c(Cn2cccc2CNC(=O)NC2CCCC2)c1 | 4 | -0.65
82 | O=C1CCC2(CCN(Cc3ccc(F)c(Cl)c3F)CC2)CN1C1CC1 | -2 | 0.29
83 | CC(=O)Nc1ccc(Cc2nc3cc(C(=O)N4CCN(c5ccc(Cl)cc5)CC4)ccc3[nH]2)cc1 | -16 | 1.83
84 | CC1CC(C)CN(C(=O)CCN2C(=O)c3ccccc3C2=O)C1 (configuration not stated) | -10 | 1.43
85 | CC(NC1CCc2c(O)cccc21)c1ccc(N2CCCC2=O)cc1 (configuration not stated) | -8 | 0.94
86 | CCN(C(=O)Nc1nnc(C)s1)[C@@H](C)c1cc2ccccc2o1 | -2 | 0.22
